Assay results published in article PMC5398727, “GP73 represses host innate immune response to promote virus replication by facilitating MAVS and TRAF6 degradation” (PLoS Pathogens, 2017).
No constants are given. Whether binding was seen depends on the method and setting. In cells and extracts the contact can be indirect. Some entries that bind do so weakly or less than the wild type. Where a sequence is shown, tags or fusion partners need not be part of it.

Amino acid sequences for entries named in this document (tags omitted). A change or cut given only in a name is not applied to a line headed by its entry. Chains listed by the source or under a name are the forms on record and can include a tag or linker. Residues count along the entry.
UniProt Q7Z434: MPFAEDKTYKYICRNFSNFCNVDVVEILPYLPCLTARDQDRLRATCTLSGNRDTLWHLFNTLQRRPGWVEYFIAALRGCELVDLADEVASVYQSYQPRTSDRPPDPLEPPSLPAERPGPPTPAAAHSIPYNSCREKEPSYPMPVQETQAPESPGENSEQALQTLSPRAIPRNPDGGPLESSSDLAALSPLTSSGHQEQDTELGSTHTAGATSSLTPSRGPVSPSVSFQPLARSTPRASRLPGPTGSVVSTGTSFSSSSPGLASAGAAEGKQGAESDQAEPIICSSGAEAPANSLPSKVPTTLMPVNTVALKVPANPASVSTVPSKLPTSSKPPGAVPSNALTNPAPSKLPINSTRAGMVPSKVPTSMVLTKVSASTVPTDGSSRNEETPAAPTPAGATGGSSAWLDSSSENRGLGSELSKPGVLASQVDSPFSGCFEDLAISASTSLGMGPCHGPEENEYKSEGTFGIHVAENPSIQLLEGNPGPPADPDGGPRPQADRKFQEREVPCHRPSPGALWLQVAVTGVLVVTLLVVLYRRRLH
MAVS (1–510): residues 1-510 of Q7Z434
MAVS (1–360): residues 1-360 of Q7Z434
MAVS (1–180): residues 1-180 of Q7Z434
MAVS (181–540): residues 181-540 of Q7Z434
M11 MAVS (1–90/441–540) (Q7Z434, form named): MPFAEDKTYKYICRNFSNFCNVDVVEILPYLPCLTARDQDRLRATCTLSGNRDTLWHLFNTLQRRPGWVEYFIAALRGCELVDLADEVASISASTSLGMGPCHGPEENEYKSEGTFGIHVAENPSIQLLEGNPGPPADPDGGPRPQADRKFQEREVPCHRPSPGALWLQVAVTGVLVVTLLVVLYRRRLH

Columns and labels:
Test in all cases: co-IP; HEK293 co-transfected with GP73 plasmid and Flag-tagged (or indicated) plasmids for 24 h; lysis in 50 mM Tris-HCl, 150 mM NaCl, 1% Triton X-100, 1 mM EDTA, 10% glycerol, pH 7.4; immunoprecipitated with anti-Flag (or IgG), washed with 300 mM NaCl buffer, WB; Fig 3B, 3C, 4C-F, S4B (for Fig 4C-F the antibodies are only 'indicated')
MAVS (181–540) = MAVS (181–540) (UniProt Q7Z434)
M11 MAVS (1–90/441–540) = M11 MAVS (1–90/441–540) (UniProt Q7Z434)
MAVS (1–360) = MAVS (1–360) (UniProt Q7Z434)
[1] = target: T1, Flag-RIG-I (retinoic acid inducible gene I) (UniProt O95786)
T1 sequence: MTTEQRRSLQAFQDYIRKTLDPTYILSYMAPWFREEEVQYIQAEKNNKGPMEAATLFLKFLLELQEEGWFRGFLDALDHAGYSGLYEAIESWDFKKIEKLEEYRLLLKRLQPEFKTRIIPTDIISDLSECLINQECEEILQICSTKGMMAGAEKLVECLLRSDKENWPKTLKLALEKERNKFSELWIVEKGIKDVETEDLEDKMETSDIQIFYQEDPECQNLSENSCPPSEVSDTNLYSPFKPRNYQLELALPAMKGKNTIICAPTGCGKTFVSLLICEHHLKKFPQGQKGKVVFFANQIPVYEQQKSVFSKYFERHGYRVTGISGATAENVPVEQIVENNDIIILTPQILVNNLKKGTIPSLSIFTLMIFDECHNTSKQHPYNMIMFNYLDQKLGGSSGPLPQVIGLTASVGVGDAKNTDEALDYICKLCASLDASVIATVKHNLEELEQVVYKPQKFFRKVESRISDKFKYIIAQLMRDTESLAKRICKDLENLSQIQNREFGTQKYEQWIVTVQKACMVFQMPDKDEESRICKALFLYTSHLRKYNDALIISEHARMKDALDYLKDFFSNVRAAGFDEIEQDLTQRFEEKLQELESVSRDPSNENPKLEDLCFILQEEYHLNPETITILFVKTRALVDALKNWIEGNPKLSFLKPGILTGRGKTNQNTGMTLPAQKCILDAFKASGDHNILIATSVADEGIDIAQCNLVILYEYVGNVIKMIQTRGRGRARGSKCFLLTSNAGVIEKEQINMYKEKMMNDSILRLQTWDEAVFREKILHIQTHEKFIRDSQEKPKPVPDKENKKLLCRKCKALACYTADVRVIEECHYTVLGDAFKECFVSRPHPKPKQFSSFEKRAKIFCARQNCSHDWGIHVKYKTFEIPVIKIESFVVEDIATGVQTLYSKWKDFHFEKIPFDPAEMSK

MAVS (1–180) = MAVS (1–180) (UniProt Q7Z434)
MAVS (1–510) = MAVS (1–510) (UniProt Q7Z434)
Flag-IRF3 = target: T2, Flag-IRF3 (UniProt Q14653)
T2 sequence: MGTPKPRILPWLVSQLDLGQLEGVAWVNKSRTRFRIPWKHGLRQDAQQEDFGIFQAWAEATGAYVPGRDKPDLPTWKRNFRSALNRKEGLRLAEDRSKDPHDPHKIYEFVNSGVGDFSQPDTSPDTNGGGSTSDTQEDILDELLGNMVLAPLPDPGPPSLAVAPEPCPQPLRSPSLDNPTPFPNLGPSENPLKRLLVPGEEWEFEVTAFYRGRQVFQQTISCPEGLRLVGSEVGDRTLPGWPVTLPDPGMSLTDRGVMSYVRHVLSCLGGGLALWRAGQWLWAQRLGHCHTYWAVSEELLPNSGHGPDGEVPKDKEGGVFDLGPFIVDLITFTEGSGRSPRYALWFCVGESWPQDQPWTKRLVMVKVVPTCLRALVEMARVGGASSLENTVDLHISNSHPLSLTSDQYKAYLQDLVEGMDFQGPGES

binding (MAVS (181–540)): no binding
binding (M11 MAVS (1–90/441–540)): binds
binding (MAVS (1–360)): no binding
binding [1]: no binding
binding (MAVS (1–180)): no binding
binding (MAVS (1–510)): no binding
binding (Flag-IRF3): no binding
B1: HA-GP73 (Golgi protein 73) (protein, UniProt Q8NBJ4 1-401)
chain: MMGLGNGRRSMKSPPLVLAALVACIIVLGFNYWIASSRSVDLQTRIMELEGRVRRAAAERGAVELKKNEFQGELEKQREQLDKIQSSHNFQLESVNKLYQDEKAVLVNNITTGERLIRVLQDQLKTLQRNYGRLQQDVLQFQKNQTNLERKFSYDLSQCINQMKEVKEQCEERIEEVTKKGNEAVASRDLSENNDQRQQLQALSEPQPRLQAAGLPHTEVPQGKGNVLGNSKSQTPAPSSEVVLDSKRQVEKEETNEIQVVNEEPQRDRLPQEPGREQVVEDRPVGGRGFGGAGELGQTPQVQAALSVSQENPEMEGPERDQLVIPDGQEEEQEAAGEGRNQQKLRGEDDYNMDENEAESETDKQAALAGNDRNIDVFNVEDQKRDTINLLDQREKRNHTL
